Four compounds from the supplement of paper PMC4604168 (melanoma cell lines) can be followed below.

The list shows a part of the results. Single values are uncertain, as repeats are few or missing.

Test systems include COLO792; COLO800; COLO829; G361; IPC-298; IST-MEL1; LB2518-MEL; LOXIMVI; MEL-HO.
Common to all, as to assay: cell count relative to DMSO control; melanoma cells; higher = more viable cells
Holding throughout (conditions): library dose: low library concentration; 72 h
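Note: cell number obtained by counting DAPI-stained nuclei in high-throughput microscope images with image analysis software, screen run in 1,536-well plates.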

For the compound `O=C(Nc1cc(C(F)(F)F)cc(C(F)(F)F)c1)c1cc(Cl)ccc1O` + Cn1cncc1[C@@](N)(c1ccc(Cl)cc1)c1ccc2c(c1)c(-c1cccc(Cl)c1)cc(=O)n2C [tipifarnib] (first compound 0.016 µM, partner dose 0.01 µM), the cell count is 82.3% in the test on COLO792; 102% in the test on COLO800; 92% in the test on COLO829; 97.2% in the test on G361; 101% in the test on IPC-298; 87.6% in the test with IST-MEL1. Further, the figures for the cell count with LB2518-MEL, in the test with LOXIMVI and with MEL-HO were 75.9%, 93.8% and 98.7%, respectively.

For `O=C(Nc1cc(C(F)(F)F)cc(C(F)(F)F)c1)c1cc(Cl)ccc1O` + CCCCCCCCCCCC1=C(O)C(=O)C=C(O)C1=O [Embelin] (first compound 0.016 µM, partner dose 1.2 µM), the cell count with COLO792 turned out to be 95%; in the test with COLO800 it was 75.7%; in the test with COLO829 it was 110%; with G361, 94.7%; with IPC-298 it was 99.2%; in the test on IST-MEL1, 103%. Further, the cell count in the test with LOXIMVI is 106%; in the test on MEL-HO, 95.3%.

Consider `Cn1nnc2c(C(N)=O)ncn2c1=O` [temozolomide] + NCC(=O)Nc1ccc(-n2nc(C(F)(F)F)cc2-c2ccc3c(ccc4ccccc43)c2)cc1 [OSU03012] (first compound 2 µM, partner dose 1 µM), for which the cell count in the test on COLO792 came to 96%; with COLO800, 69.9%; in the test on COLO829, 91.6%; in the test on G361 it was 105%; in the test on IPC-298 it was 83.9%; with IST-MEL1 it was 86.4%. The cell count with LB2518-MEL turned out to be 101%; with LOXIMVI it was 109%; in the test on MEL-HO, 106%.

`O=C(Nc1cc(C(F)(F)F)cc(C(F)(F)F)c1)c1cc(Cl)ccc1O` + COc1cc2c(Oc3ccc4[nH]c(C)cc4c3F)ncnc2cc1OCCCN1CCCC1 [cediranib] (first compound 0.016 µM, partner dose 0.4 µM): the cell count in the test on COLO792 was found to be 85.5%; with COLO800, 84.8%; in the test with COLO829 it was 84%; in the test on G361, 105%; in the test on IPC-298, 94.2%; with IST-MEL1, 92.9%. Moreover, the cell count with LB2518-MEL was found to be 82.3%; in the test with LOXIMVI, 129%; in the test with MEL-HO it was 89.3%.
